Experimental data as given in a collection of fitness landscapes (doi:10.1016/j.celrep.2020.107928).
The full ranking holds about 81,000 sequences; the median of “one-hybrid fitness for binding NBS DNA” is about -0.1, and the highest 2% start at about 0.36. The list shows a part of the results.

B1: Caulobacter ParB omega fusion; a variant is named by its letters at X, in order, B8GW30 (parent)
chain: MESVVVGEPGMSEGRRGLGRGLSALLGEVDAAPAQAPGEQLGGSREAPIEILQRNPDQPRRTFREEDLEDLSNSIREKGVLQPILVRPSPDTAGEYQIVAGERAWRAAQRAGLKTVPIMVRELDDLAVLEIGIIENVQRADLNVLEEALSYKVLMEKFERTQENIAQTIGKSXSHVANXMRLLXLPDEVQSYLVSGELTAXHARAIAAAADPVALAKQIIEGGLSVRETEALARKAPNLSAGKSKGGRPPRVKDTDTQALESDLSSVLGLDVSIDHRGSTGTLTITYATLEQLDDLCNRLTRGI

Variants of: B1
Test: one-hybrid fitness for binding NBS DNA (the Noc-binding site; scaled: cognate 1, non-cognate 0); higher = stronger binding
Details: with NBS DNA site
Method in brief: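 In E. coli USO, a HIS3 reporter with its site placed 19 bp from the promoter was used to select Caulobacter ParB variants randomised at four specificity codons. Growth lasted 48 hours at 37°C on histidine-free M9 containing 0.1 mM IPTG and 5 mM 3-AT. Fitness was taken as the log change in variant-to-wild-type read ratio from Illumina sequencing of pre- and post-selection plasmids, rescaled between the non-cognate and cognate sites.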

Variant | one-hybrid fitness for binding NBS DNA
SQSF | ≤ 0.2
DSRH | ≤ 0.2
REFR | ≤ 0.2
QYTW | ≤ 0.2
ESPR | ≤ 0.2
IRYS | ≤ 0.2
YNVW | ≤ 0.2
RGSC | ≤ 0.2
SNDF | ≤ 0.2
DTMS | ≤ 0.2
SFMY | ≤ 0.2
VNQD | ≤ 0.2
YHNG | ≤ 0.2
SLNI | ≤ 0.2
QAHY | ≤ 0.2
VIEG | ≤ 0.2
GHHR | ≤ 0.2
DKIG | ≤ 0.2
THDR | ≤ 0.2
RQEE | ≤ 0.2
RIKW | ≤ 0.2

Variant | one-hybrid fitness for binding NBS DNA
AGRS | ≤ 0.2
AMKT | ≤ 0.2
CHTS | ≤ 0.2
INSG | ≤ 0.2
RKFH | 0.212
SVRA | ≤ 0.2
VRRN | ≤ 0.2
SAGM | ≤ 0.2
ACGM | ≤ 0.2
TELL | ≤ 0.2
VQAR | ≤ 0.2
VLID | ≤ 0.2
AITS | ≤ 0.2
RRDF | ≤ 0.2
PYPV | ≤ 0.2
VARS | ≤ 0.2
YVRC | ≤ 0.2
YWAR | ≤ 0.2
SNRI | ≤ 0.2
EGRG | ≤ 0.2
HNRC | ≤ 0.2

Variant | one-hybrid fitness for binding NBS DNA
AILS | ≤ 0.2
RVNT | 0.576
APTC | ≤ 0.2
GIQR | ≤ 0.2
DRMC | ≤ 0.2
DFTA | ≤ 0.2
YDHG | ≤ 0.2
LLVV | ≤ 0.2
EPPI | ≤ 0.2
MPGS | ≤ 0.2
KCRG | ≤ 0.2
VYSC | ≤ 0.2
HNAD | ≤ 0.2
NLSV | ≤ 0.2
LVIR | ≤ 0.2
TRTW | ≤ 0.2
QLDN | ≤ 0.2
FNGG | ≤ 0.2
ACCC | ≤ 0.2
AVFG | ≤ 0.2
NRRY | ≤ 0.2

Variant | one-hybrid fitness for binding NBS DNA
QRKQ | 0.492
GTLP | ≤ 0.2
DRIR | ≤ 0.2
LKSR | ≤ 0.2
DYSS | ≤ 0.2
SINC | ≤ 0.2
ETMG | ≤ 0.2
RYRL | ≤ 0.2
LPQS | ≤ 0.2
KVCS | ≤ 0.2
RRYW | ≤ 0.2
MHST | ≤ 0.2
RFMR | ≤ 0.2
RTLM | ≤ 0.2
VNSS | ≤ 0.2
YATL | ≤ 0.2
TTYC | ≤ 0.2
YKLG | ≤ 0.2
VMKI | ≤ 0.2
VHAG | ≤ 0.2
PDAD | ≤ 0.2
